Each structure is given as a SMILES string. The campaign covered roughly 310,000 compounds. About 14,000 (4.5%) showed an effect of 50% or more. The effect is printed as a negative number. Some of the results follow.
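Also: peak tail current of the secondary pulse compared with the same well before compound.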

This experiment deals with human ether-à-go-go-related gene (hERG) potassium channel (human, UniProt Q12809). As to the kind of experiment: primary screen, population patch clamp on CHO cells stably expressing hERG.
Sequence of human ether-à-go-go-related gene (hERG) potassium channel (Q12809 whole entry, looked up): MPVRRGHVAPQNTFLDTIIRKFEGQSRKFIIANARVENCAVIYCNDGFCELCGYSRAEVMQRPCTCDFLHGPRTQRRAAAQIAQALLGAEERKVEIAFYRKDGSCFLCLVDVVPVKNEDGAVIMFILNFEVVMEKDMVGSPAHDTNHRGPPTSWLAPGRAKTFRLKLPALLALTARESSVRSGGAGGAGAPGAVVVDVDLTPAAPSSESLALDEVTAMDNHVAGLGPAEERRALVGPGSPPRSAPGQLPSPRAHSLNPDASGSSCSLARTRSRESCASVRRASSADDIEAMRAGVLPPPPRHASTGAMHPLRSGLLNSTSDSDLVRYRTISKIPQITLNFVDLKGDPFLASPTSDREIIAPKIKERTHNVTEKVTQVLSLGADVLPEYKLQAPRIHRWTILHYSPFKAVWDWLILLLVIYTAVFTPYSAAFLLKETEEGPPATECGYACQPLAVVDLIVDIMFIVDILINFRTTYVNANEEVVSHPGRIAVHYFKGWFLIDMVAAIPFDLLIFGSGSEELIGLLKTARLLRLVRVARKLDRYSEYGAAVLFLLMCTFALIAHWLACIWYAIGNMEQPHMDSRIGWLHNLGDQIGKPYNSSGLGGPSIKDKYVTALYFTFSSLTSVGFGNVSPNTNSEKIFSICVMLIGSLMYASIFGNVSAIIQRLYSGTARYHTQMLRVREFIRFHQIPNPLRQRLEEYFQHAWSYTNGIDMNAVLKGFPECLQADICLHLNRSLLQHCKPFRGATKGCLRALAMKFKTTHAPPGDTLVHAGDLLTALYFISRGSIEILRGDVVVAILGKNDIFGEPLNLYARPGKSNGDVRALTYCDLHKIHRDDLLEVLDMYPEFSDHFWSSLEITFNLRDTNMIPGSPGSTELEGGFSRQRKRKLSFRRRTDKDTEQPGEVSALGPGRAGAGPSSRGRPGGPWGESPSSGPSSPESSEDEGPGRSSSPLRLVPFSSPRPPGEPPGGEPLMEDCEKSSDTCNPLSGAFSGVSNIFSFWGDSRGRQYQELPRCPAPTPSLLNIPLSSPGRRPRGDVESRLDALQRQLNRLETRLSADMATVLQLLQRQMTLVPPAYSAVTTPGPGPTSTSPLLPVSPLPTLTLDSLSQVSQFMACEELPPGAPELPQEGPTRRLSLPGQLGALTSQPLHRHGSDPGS
Regarding `Cc1ccc(/C(O)=C2\C(=O)C(=O)N(C)C2c2ccccc2[N+](=O)[O-])cc1` (centres unmarked), the “hERG current change (%, negative = inhibition) at 10uM” value was found to be 16.7%.

Turning to `O=C(NCCCN1CCCC1=O)c1ccc(Cl)c(NS(=O)(=O)c2ccc(F)cc2)c1`, the “hERG current change (%, negative = inhibition) at 10uM” value was 3.69%.

For the compound `CC1=NC(C)(C)Cc2ccccc21.O=C(O)c1ccccc1O`, the “hERG current change (%, negative = inhibition) at 10uM” value amounted to 22%.

Take `O=C(Nc1nc(-c2ccccc2)c(-c2ccccc2)s1)c1ccc(S(=O)(=O)N2CCCCC2)cc1`: the “hERG current change (%, negative = inhibition) at 10uM” value was determined as 2.91%.

As for `CC(=O)c1ccc(COC(=O)c2cc3ccccc3oc2=O)cc1`, the “hERG current change (%, negative = inhibition) at 10uM” value is recorded as -9.26%.

For the compound `COc1ccc2nc(NC(=O)c3c(C)noc3C)sc2c1`, the “hERG current change (%, negative = inhibition) at 10uM” value is -34.3%.

Turning to `CCN(CC)CCCn1c(=S)[nH]c2cc(Cl)ccc2c1=O`, the “hERG current change (%, negative = inhibition) at 10uM” value is given as -68.7%.

As to `CC(=O)c1ccc(NC(=O)CSc2nnc(-c3ccncc3)o2)cc1`, the “hERG current change (%, negative = inhibition) at 10uM” value is given as -12.9%.

Consider `COc1ccc(NC2=C(C(C)=O)C(c3ccc(N(C)C)cc3)C(C(C)=O)C(C)(O)C2)cc1` (centres unmarked), for which the “hERG current change (%, negative = inhibition) at 10uM” value is on record as 9.08%.

In the case of `CC(C)OC(=O)Nc1ccc2c(c1)N(C(=O)CCN(C)C)c1ccccc1CC2.Cl`, the “hERG current change (%, negative = inhibition) at 10uM” value is -20.8%.

Regarding `CN(C)/C=C(/C(=O)c1ccc(Cl)cc1Cl)S(=O)(=O)c1ccc(Cl)cc1`, the “hERG current change (%, negative = inhibition) at 10uM” value is -5.04%.

Consider `COc1cc(NC(=O)c2cc(Cl)nnc2Cl)cc(OC)c1OC`, for which the “hERG current change (%, negative = inhibition) at 10uM” value is reported as -6.59%.

`CCOCC(=O)Nc1nc2ccc(S(C)(=O)=O)cc2s1`: the “hERG current change (%, negative = inhibition) at 10uM” value is -8.14%.

With `Cc1ccccc1OCC(=O)NCCCNC(=O)c1ccncc1`, the “hERG current change (%, negative = inhibition) at 10uM” value is on record as -5.1%.

In the case of `O=c1[nH]c(=S)n(-c2ccc(Cl)cc2)c(O)c1/C=N/N1CCOCC1`, the “hERG current change (%, negative = inhibition) at 10uM” value is given as -6.08%.

Regarding `COc1ccc(-c2cc(C(=O)N(C)CC(=O)Nc3cccc(F)c3)c3ccccc3n2)cc1`, the “hERG current change (%, negative = inhibition) at 10uM” value is recorded as -5.13%.

Consider `CCCC[n+]1ccc(-c2nc3ccc([N+](=O)[O-])cc3[nH]2)cc1`, for which the “hERG current change (%, negative = inhibition) at 10uM” value is given as -59.5%.

On to `CC1(C(=O)Nc2cccc3ccccc23)CC1(Br)Br` (centres unmarked), for which the “hERG current change (%, negative = inhibition) at 10uM” value was determined as 0.448%.

With `CC(NC(=S)NNS(=O)(=O)c1ccc(C(C)(C)C)cc1)c1ccccc1` (centres unmarked), the “hERG current change (%, negative = inhibition) at 10uM” value was -11.2%.

On to `COc1ccc([N+](=O)[O-])cc1NC(=O)CCCOc1ccccc1`, for which the “hERG current change (%, negative = inhibition) at 10uM” value was 21.6%.

In the case of `CCOC(=O)c1cc(C#N)c(Oc2cccc(C(F)(F)F)c2)nc1-c1ccccc1`, the “hERG current change (%, negative = inhibition) at 10uM” value is given as -8.34%.

Turning to `Cc1cc(=O)n2nc(N3CCCC(C(=O)NCc4cccc(Br)c4)C3)sc2n1` (centres unmarked), the “hERG current change (%, negative = inhibition) at 10uM” value is on record as -30.2%.

As to `COc1ccc(OCCC(=O)N2CCCCC2)cc1`, the “hERG current change (%, negative = inhibition) at 10uM” value was 0.408%.

For the compound `CN1CCN(C(=O)C2CCC(CNS(=O)(=O)c3cccc4cccnc34)CC2)CC1` (centres unmarked), the “hERG current change (%, negative = inhibition) at 10uM” value stood at 5.72%.

`CCC(Oc1ccccc1)C(=O)NC1CCSC1=O` (centres unmarked): the “hERG current change (%, negative = inhibition) at 10uM” value came to 3.17%.

Take `O=C(O)CCCC(=O)N1CCN(c2cccc(Cl)c2)CC1`: the “hERG current change (%, negative = inhibition) at 10uM” value is 2.98%.

For the compound `N#Cc1cc2cc3c(cc2nc1SCC(=O)N1CCOCC1)OCO3`, the “hERG current change (%, negative = inhibition) at 10uM” value was determined as 14.8%.

Consider `Cc1ccc(C(=O)Oc2ccccc2N2C(=O)C3C4CCC(C4)C3C2=O)cc1` (centres unmarked), for which the “hERG current change (%, negative = inhibition) at 10uM” value stood at 3.99%.

Take `CCOC(=O)c1ccc(S(=O)(=O)N2CCC(C(=O)NCc3ccccc3OC)CC2)cc1`: the “hERG current change (%, negative = inhibition) at 10uM” value is -22.5%.

`COc1ccc(C2NC(=O)c3ccccc3O2)cc1OC` (centres unmarked): the “hERG current change (%, negative = inhibition) at 10uM” value turned out to be 3.2%.

As for `Cc1cccnc1NC(=O)c1c(O)c2ccccc2n(C)c1=O`, the “hERG current change (%, negative = inhibition) at 10uM” value turned out to be 11.9%.

For the compound `N#CC(c1ccc(=O)[nH]n1)c1ccc(Cl)cc1Cl` (centres unmarked), the “hERG current change (%, negative = inhibition) at 10uM” value is given as -5.22%.

Regarding `O=C(c1ccc2c(c1)C(=O)N(CCCO)C2=O)c1ccc2c(c1)C(=O)N(CCCO)C2=O`, the “hERG current change (%, negative = inhibition) at 10uM” value was found to be 5.74%.

On to `COc1cc(NC(=O)CSc2nc(C)c(C)c(C)n2)c(C)cc1[N+](=O)[O-]`, for which the “hERG current change (%, negative = inhibition) at 10uM” value is given as 0.898%.

Regarding `CCc1ccc(NC(=S)N2CCCCCCC2)cc1`, the “hERG current change (%, negative = inhibition) at 10uM” value is on record as -8.14%.

On to `CC(=O)NC(NC(=S)Nc1cccc(Br)c1)C(Cl)(Cl)Cl` (centres unmarked), for which the “hERG current change (%, negative = inhibition) at 10uM” value was -11.3%.

For `O=C1CC(N2CCN(c3ccccc3)CC2)C(=O)N1c1cccc(Br)c1` (centres unmarked), the “hERG current change (%, negative = inhibition) at 10uM” value was -1.92%.

On to `COc1ccc(OC)c(CCNC(=O)c2ccc(CS(=O)Cc3ccc(Cl)cc3)o2)c1` (centres unmarked), for which the “hERG current change (%, negative = inhibition) at 10uM” value was -31%.

Regarding `Cc1nn(C(=O)c2cccnc2)c(C)c1C`, the “hERG current change (%, negative = inhibition) at 10uM” value is on record as 0.855%.

In the case of `CC(=O)c1ccc(N(C(=O)c2csnn2)C(C(=O)NC(C)(C)C)c2cccs2)cc1` (centres unmarked), the “hERG current change (%, negative = inhibition) at 10uM” value is -49.5%.

Consider `CCOc1ccc(NC(=O)Cn2nnc(-c3ccccc3NC(=O)c3cccs3)n2)cc1`, for which the “hERG current change (%, negative = inhibition) at 10uM” value is listed as 3.51%.

As for `Cc1cc(/C=C(\C#N)C(=O)OCC#N)c(C)n1CC(C)C`, the “hERG current change (%, negative = inhibition) at 10uM” value is reported as -27.6%.

For `CCOC(=O)Cc1csc2nc3sc(C)c(C)c3c(=O)n12`, the “hERG current change (%, negative = inhibition) at 10uM” value was -0.0665%.

For the compound `CCOC(=O)c1c(NC(=O)c2ccnn2C)sc(C)c1C`, the “hERG current change (%, negative = inhibition) at 10uM” value came out at 17.6%.

`O=C(Nc1cccc2ncccc12)c1ccc2c(c1)OCCO2`: the “hERG current change (%, negative = inhibition) at 10uM” value is listed as -12.5%.

In the case of `Cc1cccc(C)c1NC(=O)C[N+](C)(C)CC(O)COc1cccc2ccccc12.[Cl-]` (centres unmarked), the “hERG current change (%, negative = inhibition) at 10uM” value is 6.31%.

With `CSc1nc(C)cc(SCC(=O)N/N=C/c2ccccc2)n1`, the “hERG current change (%, negative = inhibition) at 10uM” value was found to be 3.7%.

Regarding `CN(C)S(=O)(=O)N1CCN(Cc2ccccc2)CC1`, the “hERG current change (%, negative = inhibition) at 10uM” value was -0.578%.

Regarding `Cn1cnnc1SCc1nc(N)nc(Nc2ccccc2)n1`, the “hERG current change (%, negative = inhibition) at 10uM” value was determined as 14.5%.

For `Cc1cc(NC(=O)CN(C)CC(=O)Nc2ccc(F)c(F)c2F)no1`, the “hERG current change (%, negative = inhibition) at 10uM” value is on record as -1.16%.

With `COC(=O)c1cc(OC)c(OC)cc1NC(=O)c1ccc(OC)c(OC)c1`, the “hERG current change (%, negative = inhibition) at 10uM” value was -4.57%.

For the compound `Cc1ccc(SC2CC(=O)N(c3ccc4c(c3)OCCO4)C2=O)cc1` (centres unmarked), the “hERG current change (%, negative = inhibition) at 10uM” value is reported as 5.66%.

Consider `COc1cc(NS(C)(=O)=O)c(OC)cc1NC(=O)c1ccccc1`, for which the “hERG current change (%, negative = inhibition) at 10uM” value was -9.96%.

`COc1ccc(NC(=O)COC(=O)CCNS(=O)(=O)c2ccccc2)cc1OC`: the “hERG current change (%, negative = inhibition) at 10uM” value amounted to 23.2%.

Take `CCN1CCN(c2nc(N)c([N+](=O)[O-])c(Nc3ccc(C)cc3)n2)CC1`: the “hERG current change (%, negative = inhibition) at 10uM” value was -68.9%.

Consider `CCC1Nc2ncnc(N3CCOCC3)c2N(Cc2ccccc2)C1=O.O=C(O)C(F)(F)F` (centres unmarked), for which the “hERG current change (%, negative = inhibition) at 10uM” value was found to be 4.69%.

These data come from PMC4336329 (PLoS ONE, 2015).
